# Data published in the supplement of paper PMC11417369.
# The list shows a part of the results.
# Test system: PfSIP2 AP2 domain 1 (GST-tagged)
# Test: gcPBM binding intensity (ln(normalized median fluorescence intensity)); higher = stronger DNA binding
# In short: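 Plasmodium falciparum DNA-binding domains carrying a GST tag were expressed in E. coli and applied for 1 h, at about 25 μg on average, to an Agilent 4 × 180k array. The array held primer-extended double-stranded 36-bp intergenic genomic probes together with negative controls, and binding took place in 1× PBS with 1% milk, 0.2 mg/ml BSA, 0.5% salmon testes DNA and 0.03% Triton X-100. An Alexa488 anti-GST antibody detected bound protein, and the array was scanned at 488 nm. Binding intensity is taken as the highest Masliner-normalised natural-log median intensity across replicate spots of either probe orientation.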
row,Sequence,gcPBM binding intensity (ln)
1,ACCTGGACAAAAATAAATAAATAAATAAATAAATGA [GTGCAC_negctrl_site238],7.1
2,GGAATTATATGAAATAAACACACATATGTAATATTA [CACACA_site8586],6.83
3,TTTTTTTTTTTTTTGGTGCGTTTATATATAAATATA,8.81
4,AAAATCTAATATAATGCACACATAAAAAAAAAATCA [CACACA_site8871],7.17
5,TACATCGACCTATGTACATGCAAATTATTTTTATTT [TGCATGCA_site182],7.11
6,CTTTTAATATGTGTAGTGCATTTTTTTTTTTTTTTT [GTGCAC_site9727],8.98
7,AAAAAAAAAAAAAACACACACAACACCCATACCTTA [CACACA_site3621],7.34
8,GTCCTTCATCATATTTAACACACAGAGAAAAAGCGG [CACACA_site7979],7.68
9,CACCCATAAATATACACACGCACAACACAAAATAAA [CACACA_site2903],7.52
10,ATATATATATATACATGTACAAATGTATAACAAATG [XGTACX_site145],9.02
11,TTTTTTTACAACATTACACACAAATATTCTGTGTTA [CACACA_site5957],7.1
12,AGAAAATTAAAAAGAACACACAAATATATATATAAT [CACACA_site5896],6.86
13,AATCGTGTTCTGAATACACACTAATACAAATTTGTA [CACACA_site6058],6.98
14,AACAAAAATAATAATCAAATAAATAAATGAAAACAT [CACACA_negctrl_site456],6.86
15,ATATTACAACATTTTATACACACGTGATTATTAATT [CACACA_site2877],7.1
16,AACATTTTAAAACAGACACACACCAAAAAAAAAAAA [CACACA_site257],7.08
17,CATCCTATTACTTGGTGTACTATTTTATATTGAATA [XGTACX_site1050],7.24
18,ATAAATTTATCCAAGTGTACAAAGCTAACATTTTTT [XGTACX_site4399],7.05
19,GTTTATAAAATAAGAAGTACTTTATGAGAACCATAT [XGTACX_site5789],7.09
20,ATAAACAAGACGCAACAAAGTAGAAATTAAAAATAA [CACACA_negctrl_site345],6.73
21,AAAAATGGAATTATCTGTACATATATAGTTTTTAAA [XGTACX_site5580],6.72
22,TGGTACCTTACTTTTACACACTTTTTTTTTTTTTTT [CACACA_site1557],7.19

row,Sequence,gcPBM binding intensity (ln)
1,CCATTTTAAATATGCACACAGATGCACTAACACATT [CACACA_site5099],10.5
2,AATATATACGCATGCGCACACACAAGTGGGAAATTT [CACACA_site1786],6.98
3,TTTTGAGTAGCCTATTGTACGAACTTTTTAAATACA [XGTACX_site1224],7.2
4,CTATCTACATAAACGTGTACCCACAAATAAATAAAT [XGTACX_site5210],7.54
5,TTAACCTTTTGATATTGTACCCATAATCTAATACAA [XGTACX_site769],6.97
6,TTTTTTAAAAAAGTTTTCTGTATTTATATATATATA [CACACA_negctrl_site31],8.8
7,TCATATGTATAAATTAGTACATATTTAATGGATATA [XGTACX_site3298],6.95
8,AAATGAAAATAAAGCAACAGAAATATAATGTATTAT [GTGCAC_negctrl_site508],6.87
9,TTATGTCATAAATGCACACATATATATATACATATA [CACACA_site1588],7.41
10,AGGCACGTGTTATATACACACATAATCAAATAAACT [CACACA_site7852],7.2
11,ACATTTTATACGATAAAATGTATAAGATTATGAAGA [TGCATGCA_negctrl_site476],6.9
12,AAAATAATAACATTGTGTACATAAAAAGAAAACCTT [XGTACX_site840],7.24
13,TATGAATGGTTAAGTACACACATATTAATATATGTA [CACACA_site3490],6.98
14,AAATTAAAATAATAATTCTACAAATTAATTTATCAT [XGTACX_negctrl_site44],6.69
15,TATCAAATGTATATATGTACTTATATTTTTTTTATA [XGTACX_site1501],6.92
16,AATATATTTTCCTGCAAACACACATATAAATGTGTA [CACACA_site532],6.96
17,TATATTACAAAAAGTACACACATAAATAAATACATA [CACACA_site975],7.17
18,ATGCTCAAAAGATATGCATGTACAAATATATGAAAT [TGCATGCA_site592],7.02
19,ACATACATACACCCACGTACGTACCGAAACACCACC [XGTACX_site1212],7.49
20,GATATAATGTGTTTGGTATTCTTGATAGATAGTTTT [CACACA_negctrl_site1711],6.99
21,ATGATGTCTTTATATTGTACATATATGAAGACGTTA [XGTACX_site7751],7
22,ACTTCAAAAATAAACTGTACGTAAAAAAAAAAAAAA [XGTACX_site795],7.77

row,Sequence,gcPBM binding intensity (ln)
1,TTTCTTTTTTTTTTTGTATATTAAATCTAAAAAGGA [TGCATGCA_negctrl_site431],6.98
2,TTTAAATAAAATATTACACACTTAGAAAAATATATA [CACACA_site3663],6.78
3,TTTCGTAAAATGAAATGTACTCAAAAGTAAATATAA [XGTACX_site214],6.88
4,TGAGAGAGAAACGTAGTGCATAAAATCAAATTTAGA [GTGCAC_site9737],7.82
5,GGTTCATATATTAACACACACATACATATTATATAT [CACACA_site2937],7.11
6,AATAATCATAGTTCTACACACCTATATTGCAAAAAA [CACACA_site867],7.18
7,TTATAAAAAATTTTAGTGCATATATGATTTATATAT [GTGCAC_site9831],8.21
8,TAATATGTATTTACAAGTACTAACAAAATATTAAAA [XGTACX_site3379],6.96
9,TACAAAAATAAATGTTGTACTATTATTTATTTCGAT [XGTACX_site1048],6.99
10,TTAAAGATATACAAAAGTACTTTTTTTTTCGTCATT [XGTACX_site384],7.03
11,TTCATTAAATAGAACAAAATAATAATATAACAACAA [GTGCAC_negctrl_site116],7.27
12,CCATATCTTTTTTGCACACACTACAATAAAACAAAA [CACACA_site4995],8.19
13,TGATACTTATGATAAATACACACTTGAAATTAAGGA [CACACA_site1152],7.01
14,TATATAGCATATTTCACACACACATAATGAATATTA [CACACA_site3546],7.19
15,ATGATATACGTAAACACACAAATAAAAAAAATTTAT [CACACA_site7544],7.04
16,TTTTTTAGTTTTTAGTGTACATAAATAAATAAATAA [XGTACX_site2843],7.25
17,TTAAAAAGAAAGTTCACACACATATAGATGACGGAA [CACACA_site7268],6.9
18,ATTTATTTATATAATACACACAAATATCTTAATGAA [CACACA_site6064],6.75
19,ATTTTTTCTAATGGGTGTACTGAAACGTATTTTATT [XGTACX_site6573],7.2
20,TTATTTTTTCTTTTTTTTCTTACCACAAAAATGGAT [CACACA_negctrl_site362],6.79
21,ATTTGTAATTATTAAACACACACAAAATATATATAA [CACACA_site8804],7.09
22,TTGTGATTATATAATCGTACATAATTTTAATCACAC [XGTACX_site398],7.04

row,Sequence,gcPBM binding intensity (ln)
1,AAAAAAAAAAAAAACACACACATATCTATAATATAT [CACACA_site7481],7.07
2,GAATATAAACATATTACACACATCTATATGTACTTT [CACACA_site8582],6.89
3,CAAAACAAAGTTGCCGCACACAGATACGCACCCAAG [CACACA_site3455],11.9
4,GTAATATTATAATATACACACATAGAATATAAATAT [CACACA_site6333],7.23
5,TTCAAGATTTATTATACACACATATTAATATATATA [CACACA_site573],7.38
6,AAAATACACCAACACACACACATATATATATATATT [CACACA_site4149],7.27
7,AGAATAAAAAGGAACACACACACACGCATATAAATA [CACACA_site7659],6.99
8,TTTATTTAATTCATTGCATGTAATTTTTGTGTCCAC [TGCATGCA_site677],6.81
9,TTTTATGATAATTTTGCACACACTTAGGAAAAATTA [CACACA_site1556],7.36
10,TTAAAAAAAAATGGCACACATTTTAATTTTATGTTT [CACACA_site5035],6.73
11,TAATATATATGTATGGCACACACGGATAAATATATA [CACACA_site930],7.04
12,AAAAAAAATATGAAAACACACATATATAAATAAATA [CACACA_site113],6.89
13,AACAAAATAAGACACACACACAAATGTACCTATATA [CACACA_site7189],7.07
14,TCTTTTTTAAATAAAAGTACAAAAAAAAATAAAAAA [XGTACX_site2670],6.93
15,CAAACAAATATATGTTGTACTTATTATATATACATA [XGTACX_site2998],6.95
16,TTATCATATGTATGCATACACACAAAAAATTATATA [CACACA_site397],7.11
17,ATGTAATTCTTTTACTTTTTTTTTTTTTTTTTTTTT [CACACA_negctrl_site979],8.15
18,ATAAATGAGCCATATTAAATCCGTTACACGGGTGTG [CACACA_negctrl_site1368],6.54
19,AACGGGTAATGCACAAAAAAAAAAAAATAAAATAAA [TGCATGCA_negctrl_site474],7.56
20,AAATTATTTTGTTATCATTATATATAGATTGAATAT [XGTACX_negctrl_site165],6.95
21,TTCTTTTAAATTAGCTGTACGGTTTTCTACATGCAT [XGTACX_site356],7.02
22,TACAATATATTTATAGTGCATATTACTTTTAACTTT,8.41
